Results taken from PubChem BioAssay (NCI).
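Cultured in 96-well plates, cells were exposed to test compound for 48 hours across five concentrations. Abbreviation: GI50, concentration required for 50% inhibition of growth. Definition used: TGI = concentration required for complete inhibition of growth.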

System: NCI-H322M lung
Assay: NCI-60 cell line screen, 48 h

CN(C)CC1CCCc2ccccc2C1=O (stereo not drawn)
TGI: 26.6 µM

Cc1cccc(C(C)C)c1NC(=O)CCl
TGI: > 100 µM

Oc1ccc(Oc2cnc3cc(Cl)ccc3n2)cc1
GI50: 66.2 µM
TGI: > 100 µM

C[C@@H](Oc1cc(-n2cnc3ccc(OCC4CCN(C)CC4)cc32)sc1C(N)=O)c1ccccc1Cl
GI50: 0.175 µM
TGI: 5.41 µM

COc1ccc(/C=N\NC(=O)c2ccc3nc(-c4ccc(Cl)cc4)[nH]c3c2)cc1
GI50: 2.49 µM
TGI: 7.2 µM
